# From article PMC4336329 (PLoS ONE, 2015)
# The whole screen tested about 310,000 compounds, of which about 14,000 (4.5%) showed an effect of 50% or more. The effect is printed as a negative number. This is one part of the list.
# Target: human ether-à-go-go-related gene (hERG) potassium channel (human, UniProt Q12809)
# Assay: primary screen, population patch clamp on CHO cells stably expressing hERG
# 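Further: peak tail current of the secondary pulse compared with the same well before compound.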
# Chain of human ether-à-go-go-related gene (hERG) potassium channel (Q12809 whole entry, looked up): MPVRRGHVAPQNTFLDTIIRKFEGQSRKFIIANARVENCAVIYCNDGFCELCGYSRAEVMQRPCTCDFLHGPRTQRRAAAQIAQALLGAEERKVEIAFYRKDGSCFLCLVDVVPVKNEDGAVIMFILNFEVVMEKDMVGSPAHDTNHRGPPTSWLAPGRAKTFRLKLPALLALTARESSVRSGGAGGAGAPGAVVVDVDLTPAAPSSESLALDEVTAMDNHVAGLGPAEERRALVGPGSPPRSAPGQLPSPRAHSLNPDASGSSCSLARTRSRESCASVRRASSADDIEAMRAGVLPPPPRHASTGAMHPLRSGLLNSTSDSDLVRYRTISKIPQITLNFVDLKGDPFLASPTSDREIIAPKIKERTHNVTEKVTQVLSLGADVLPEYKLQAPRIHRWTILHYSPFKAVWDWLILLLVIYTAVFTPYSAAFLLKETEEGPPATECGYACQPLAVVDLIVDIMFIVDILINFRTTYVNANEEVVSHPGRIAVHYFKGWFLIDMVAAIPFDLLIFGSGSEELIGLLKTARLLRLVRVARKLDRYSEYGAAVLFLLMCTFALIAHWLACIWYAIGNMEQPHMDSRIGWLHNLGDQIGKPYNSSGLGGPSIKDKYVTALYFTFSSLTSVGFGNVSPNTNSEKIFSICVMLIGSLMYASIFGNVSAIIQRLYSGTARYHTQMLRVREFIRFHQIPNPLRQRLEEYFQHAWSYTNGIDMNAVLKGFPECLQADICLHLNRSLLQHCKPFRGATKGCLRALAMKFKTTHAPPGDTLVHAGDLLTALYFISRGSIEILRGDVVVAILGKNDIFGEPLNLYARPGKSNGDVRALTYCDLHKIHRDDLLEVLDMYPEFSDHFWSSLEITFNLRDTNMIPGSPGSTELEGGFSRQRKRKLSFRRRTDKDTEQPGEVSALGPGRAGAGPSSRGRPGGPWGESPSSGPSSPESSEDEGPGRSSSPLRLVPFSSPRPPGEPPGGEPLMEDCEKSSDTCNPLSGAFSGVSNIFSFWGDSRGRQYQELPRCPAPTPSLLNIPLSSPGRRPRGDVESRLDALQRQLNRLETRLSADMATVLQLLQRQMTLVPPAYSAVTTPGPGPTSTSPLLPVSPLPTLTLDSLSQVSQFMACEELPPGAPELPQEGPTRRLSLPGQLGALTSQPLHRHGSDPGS
row,Structure (SMILES),"hERG current change (%, negative = inhibition) at 10uM [%]"
1,CCOc1ccc(NC(=O)NNC(=O)c2cccnc2)cc1,8.6
2,COc1ccccc1C(=O)NNC(=O)CCC(=O)NCc1ccccc1,6.36
3,Cc1ccnc(NC(=O)CCC(=O)N(CC(=O)NCc2ccccc2)Cc2cccs2)c1,-49.2
4,NC(=O)CC1NC(=O)c2cc([N+](=O)[O-])cc(I)c2OCCC(C(N)=O)NC(=O)[C@@H]2CCCN2C1=O (stereo partly shown),6.79
5,Cl.c1ccc(COc2cccc(CNCc3cccnc3)c2)cc1,-3.26
6,CC(=O)Nc1sc(NC(=O)c2ccco2)nc1-c1cccs1,-0.485
7,O=C(CNC(=O)c1ccccc1Cl)NC1CCN(Cc2ccccc2)CC1,13.1
8,CCCCC#Cc1cncc(C(=O)N/N=C/c2cccc(OC)c2)c1,-19.2
9,CCn1c(SCC(=O)OCC(=O)N2c3ccccc3NC(=O)C2(C)C)nnc1-c1ccco1,-5.88
10,CCOC(=O)c1cc(C)sc1NC(=O)C1CCC1,-11.3
11,Cc1ccc(C)c(Cn2nnc3c(=O)[nH]c(C4CCN(S(=O)(=O)c5ccc(S(=O)(=O)NC6CC6)cc5)CC4)nc32)c1,20.8
12,Cc1ccc(N2C(=O)c3ccccc3NC2(C(=O)O)c2ccccc2)cc1Cl (stereo not shown),-10.4
13,COc1cccc(NC(=O)CN(C)C(=O)Cc2ccc3c(c2)CCC3)c1,-4.02
14,CCn1nc(NS(=O)(=O)c2ccc([N+](=O)[O-])cc2)c2cc3cccc(C)c3nc21,12.3
15,O=C(Cc1ccccc1)Nc1c[nH]c(=O)[nH]c1=O,1.05
16,O=C(OCc1ccccc1Cl)c1cc([N+](=O)[O-])ccc1N1CCOCC1,-23.1
17,CC(=O)Nc1nc(C(=O)O)cs1,14.5
18,CC(=O)Nc1ccc(SC[C@H](Cc2ccccc2)N2CC[C@@H](C)CCC2=O)cc1,-8.11
19,Nc1c(C(=O)NC2CC2)sc2nc3c(c(-c4ccco4)c12)CC/C3=C/c1ccco1,40.4
20,CCCC(=O)Nc1sc2c(c1C#N)CCCCC2,-50.6
21,N#Cc1cc([N+](=O)[O-])cnc1Nc1ccccc1,9.2
22,Cc1ccc2c(c1)N(CC(=O)NCCCN1CCCCC1)C(=O)CO2,-24.4
23,CCOC(=O)c1c(C)[nH]c(C(=O)CN(C)CC(=O)Nc2ccccc2C(F)(F)F)c1C,-3.72
24,CCOCC(=O)N1CCN(c2ccccc2OC)CC1,17.1
25,CC(=O)c1ccc(OCCCC(=O)Nc2cccc(S(=O)(=O)N(C)C)c2)cc1,-26
26,Cc1ccc(OCC(=O)Nc2ccc3c(c2)OC(F)(F)O3)c([N+](=O)[O-])n1,14.3
27,C[C@@H](O)Cc1cn(CC(=O)NCCCCCCCCCCC(=O)N2CCNCC2)nn1,-6.45
28,COc1ccc(S(=O)(=O)N2CCN(C(=O)c3ccc([N+](=O)[O-])o3)CC2)cc1,-51.3

row,Structure (SMILES),"hERG current change (%, negative = inhibition) at 10uM [%]"
1,Cn1cc([N+](=O)[O-])c(C(=O)Nc2nc(-c3ccc(Cl)cc3)cs2)n1,-0.217
2,CCOc1ccc(-n2c(O)c(/C=C3\C=Nc4ccccc43)c(=O)[nH]c2=O)cc1,11.8
3,Cc1noc(C)c1CSCC(=O)NCCN1C(=O)S/C(=C\c2ccccc2F)C1=O,-29.9
4,CCn1ncc(C2=NOC(C(=O)Nc3c(C)n(C)n(-c4ccccc4)c3=O)C2)c1C (stereo not shown),23.7
5,CCOc1ccc(OCCC(=O)N(CC)CC(=O)Nc2c(F)cccc2F)cc1,-60.2
6,COc1cccc(/C=C/C(=O)OCC(=O)c2ccc(C)c(C)c2)c1OC,-8.03
7,Cc1[nH]c2c(ccc3cccnc32)c1C,-7.31
8,COc1ccc(/C=N\NC(=O)c2ccccc2Br)cc1COc1c(F)c(F)cc(F)c1F,-0.654
9,COc1ccc(CCC(=O)NCCCNC(=O)CCc2ccc(OC)cc2)cc1,-1.82
10,CC(OC(=O)c1ccc2ncsc2c1)C(=O)Nc1cccc(Cl)c1 (stereo not shown),-1.01
11,Cc1cc(NC(=O)CSc2nnc(C3CC3)n2N)no1,2.68
12,CCOc1cc(/C=N/NC(=O)c2cccnc2)ccc1OCC(N)=O,17.3
13,CC(=O)N1CCC(=O)Nc2ccc([N+](=O)[O-])cc21,10.7
14,O=C(Nc1cccc(C(F)(F)F)c1)C1CCCN1S(=O)(=O)c1cccc2cccnc12 (stereo not shown),-12.4
15,Cc1ccc(NC(=O)CSc2ncn[nH]2)cc1,16.1
16,C=C1C2(C(=O)NCc3ccco3)CCC(C2)C1(C)C (stereo not shown),2.47
17,CCOC(=O)C1CCN(C(c2ccccn2)c2c(C)[nH]c3ccccc23)CC1 (stereo not shown),-19.8
18,CSc1cccc(NC(=O)C2CC(=O)N(Cc3ccccc3)C2)c1 (stereo not shown),-5.34
19,O=C(CCn1c(=O)oc2ccccc21)N1CCN(c2ccccc2Cl)CC1,-34.7
20,Cc1ccc(N2C(=O)N(CC(=O)Nc3ccc(C)c(C)c3)C(=O)C2C)cc1 (stereo not shown),8
21,O=C(COC(=O)c1c[nH]c2ccccc12)Nc1ccc([N+](=O)[O-])cc1,-0.338
22,O=C(Cc1ccccc1)NCc1ccc(-n2cccc2)cc1,29.3
23,Cc1cc(C)c2nc(NC(=O)CN3C(=O)NC4(CCCC4)C3=O)sc2c1,17.1
24,Br.Cc1ccc(C(=O)C(c2ccccc2)N2Cc3ccccc3C2=N)cc1 (stereo not shown),-60.3
25,NC(=O)CSc1nnc(Cn2cnc3ccccc32)o1,6.95
26,CSCC(=O)N1CCC(n2nccc2NC(=O)CCc2ccccc2)CC1,12.1
27,COc1ccccc1/C=N/NC(=O)CNC(=O)c1ccccc1,-13.9
